# The other results are listed elsewhere or left out.
# B1: GSL-I-B4 (Griffonia simplicifolia) (protein)
# chain: NFWSDVEDSIIFQGDANTTAGTLQLCKTNQYGTPLQWSAGRALYSDPVQLWDNKTESVASFYTEFTFFLKITGNGPADGLAFFLAPPDSDVKDAGEYLGLFNKSTATQPSKNQVVAVEFDTWTNPNFPEPSYRHIGINVNSIVSVATKRWEDSDIFSGKIATARISYDGSAEILTVVLSYPDGSDYILSHSVDMRQNLPESVRVGISASTGNNQFLTVYILSWRFSSNLQSTSVKAAMEPEITRTVV
# Experiments:
# Experiment in all cases: glycan array binding signal (z-score within array); higher = stronger binding
# Details in all cases: glycan notation: IUPAC condensed, linker removed
# [1] = biological target: Gal(b1-3)GlcNAc(b1-2)Man(a1-3)[Gal(b1-3)GlcNAc(b1-2)Man(a1-6)]Man(b1-4)GlcNAc(b1-4)[Fuc(a1-6)]GlcNAc
# Procedure, shortened: (§1)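 Glycan array data were curated from 3228 arrays in the Consortium for Functional Glycomics database and kept only where the protein sequence was available. Glycan names were converted to IUPAC-condensed notation, and columns mapping to the same glycan were averaged. The binding signal is a within-array Z-score, averaged across arrays of the same protein sequence at different concentrations or buffers and across linkers. Negative Z-scores can be read as non-binding.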
# [2] = biological target: Gal(b1-3)GlcNAc(b1-2)Man(a1-3)[GlcNAc(b1-4)][Gal(b1-3)GlcNAc(b1-2)Man(a1-6)]Man(b1-4)GlcNAc(b1-4)GlcNAc
# Procedure, shortened: as §1
# [3] = biological target: Gal(b1-3)GlcNAc(b1-2)[Gal(b1-3)GlcNAc(b1-6)]Man(a1-6)[Gal(b1-3)GlcNAc(b1-2)Man(a1-3)]Man(b1-4)GlcNAc(b1-4)GlcNAc
# Procedure, shortened: as §1
# [4] = biological target: Gal(b1-3)GlcNAc(b1-3)Gal(b1-3)GlcNAc
# Procedure, shortened: as §1
# [5] = biological target: Gal(b1-3)GlcNAc(b1-3)Gal(b1-4)Glc
# Procedure, shortened: as §1
# [6] = biological target: Gal(b1-3)GlcNAc(b1-3)Gal(b1-4)GlcNAc
# Procedure, shortened: as §1
# [7] = biological target: Gal(b1-3)GlcNAc(b1-3)Gal(b1-4)GlcNAc(b1-2)Man(a1-3)[Gal(b1-3)GlcNAc(b1-3)Gal(b1-4)GlcNAc(b1-2)Man(a1-6)]Man(b1-4)GlcNAc(b1-4)GlcNAc
# Procedure, shortened: as §1
# [8] = biological target: Gal(b1-3)GlcNAc(b1-3)Gal(b1-4)GlcNAc(b1-2)[Gal(b1-3)GlcNAc(b1-3)Gal(b1-4)GlcNAc(b1-6)]Man(a1-6)[Gal(b1-3)GlcNAc(b1-3)Gal(b1-4)GlcNAc(b1-2)Man(a1-3)]Man(b1-4)GlcNAc(b1-4)[Fuc(a1-6)]GlcNAc
# Procedure, shortened: as §1
# [9] = biological target: Gal(b1-3)GlcNAc(b1-3)Gal(b1-4)GlcNAc(b1-3)Gal(b1-4)GlcNAc(b1-2)[Gal(b1-3)GlcNAc(b1-3)Gal(b1-4)GlcNAc(b1-3)Gal(b1-4)GlcNAc(b1-6)]Man(a1-6)[Gal(b1-3)GlcNAc(b1-3)Gal(b1-4)GlcNAc(b1-3)Gal(b1-4)GlcNAc(b1-2)Man(a1-3)]Man(b1-4)GlcNAc(b1-4)[Fuc(a1-6)]GlcNAc
# Procedure, shortened: as §1
# [10] = biological target: Gal(b1-3)GlcNAc(b1-3)Gal(b1-4)GlcNAc(b1-6)[Gal(b1-3)GlcNAc(b1-3)]Gal(b1-4)Glc
# Procedure, shortened: as §1
# [11] = biological target: Gal(b1-3)GlcNAc(b1-3)Gal(b1-4)[Fuc(a1-3)]GlcNAc
# Procedure, shortened: as §1
# [12] = biological target: Gal(b1-3)GlcNAc(b1-3)Gal(b1-4)[Fuc(a1-3)]GlcNAc(b1-6)[Gal(b1-3)GlcNAc(b1-3)]Gal(b1-4)Glc
# Procedure, shortened: as §1
# [13] = biological target: Gal(b1-3)GlcNAc(b1-3)GalNAc
# Procedure, shortened: as §1
# [14] = biological target: Gal(b1-3)GlcNAc(b1-6)Gal(b1-4)GlcNAc
# Procedure, shortened: as §1
# [15] = biological target: Gal(b1-3)GlcNAc(b1-6)GalNAc
# Procedure, shortened: as §1
# [16] = biological target: Gal(b1-3)GlcNAc(b1-6)[Gal(b1-3)]GalNAc
# Procedure, shortened: as §1
# Gal(b1-3)GlcNAc6S = biological target: Gal(b1-3)GlcNAc6S
# Procedure, shortened: as §1
# [17] = biological target: Gal(b1-3)[Fuc(a1-4)]GlcNAc
# Procedure, shortened: as §1
# [18] = biological target: Gal(b1-3)[Fuc(a1-4)]GlcNAc(b1-2)Man
# Procedure, shortened: as §1
# [19] = biological target: Gal(b1-3)[Fuc(a1-4)]GlcNAc(b1-2)Man(a1-3)[Gal(b1-3)[Fuc(a1-4)]GlcNAc(b1-2)Man(a1-6)]Man(b1-4)GlcNAc(b1-4)[Fuc(a1-6)]GlcNAc
# Procedure, shortened: as §1
# [20] = biological target: Gal(b1-3)[Fuc(a1-4)]GlcNAc(b1-3)Gal(b1-3)[Fuc(a1-4)]GlcNAc
# Procedure, shortened: as §1
# [21] = biological target: Gal(b1-3)[Fuc(a1-4)]GlcNAc(b1-3)Gal(b1-4)[Fuc(a1-3)]GlcNAc
# Procedure, shortened: as §1
# [22] = biological target: Gal(b1-3)[Fuc(a1-4)]GlcNAc(b1-6)GalNAc
# Procedure, shortened: as §1
# [23] = biological target: Gal(b1-3)[GlcNAc(b1-6)]GalNAc
# Procedure, shortened: as §1
# [24] = biological target: Gal(b1-3)[Neu5Ac(a2-6)]GalNAc
# Procedure, shortened: as §1
# [25] = biological target: Gal(b1-3)[Neu5Ac(a2-6)]GlcNAc(b1-4)Gal(b1-4)Glc
# Procedure, shortened: as §1
# [26] = biological target: Gal(b1-3)[Neu5Ac(b2-6)]GalNAc
# Procedure, shortened: as §1
# Gal(b1-4)Gal = biological target: Gal(b1-4)Gal
# Procedure, shortened: as §1
# [27] = biological target: Gal(b1-4)GalNAc(a1-3)[Fuc(a1-2)]Gal(b1-4)GlcNAc
# Procedure, shortened: as §1
# [28] = biological target: Gal(b1-4)GalNAc(b1-3)[Fuc(a1-2)]Gal(b1-4)GlcNAc
# Procedure, shortened: as §1
# Gal(b1-4)Glc = biological target: Gal(b1-4)Glc
# Procedure, shortened: as §1
# Gal(b1-4)Glc6S = biological target: Gal(b1-4)Glc6S
# Procedure, shortened: as §1
# Gal(b1-4)GlcNAc = biological target: Gal(b1-4)GlcNAc
# Procedure, shortened: as §1
# [29] = biological target: Gal(b1-4)GlcNAc(a1-6)Gal(b1-4)GlcNAc
# Procedure, shortened: as §1
# Gal(b1-4)GlcNAc(b1-2)Man = biological target: Gal(b1-4)GlcNAc(b1-2)Man
# Procedure, shortened: as §1
# [30] = biological target: Gal(b1-4)GlcNAc(b1-2)Man(a1-3)Man(b1-4)GlcNAc(b1-4)GlcNAc
# Procedure, shortened: as §1
# [31] = biological target: Gal(b1-4)GlcNAc(b1-2)Man(a1-3)[Gal(b1-4)GlcNAc(b1-2)Man(a1-6)]Man(b1-4)GlcNAc(b1-4)GlcNAc
# Procedure, shortened: as §1
binder,measurement,setting,value
B1,glycan array binding signal (z-score),[1],-0.116
same,glycan array binding signal (z-score),[2],-0.151
same,glycan array binding signal (z-score),[3],-0.138
same,glycan array binding signal (z-score),[4],-0.181
same,glycan array binding signal (z-score),[5],-0.16
same,glycan array binding signal (z-score),[6],-0.228
same,glycan array binding signal (z-score),[7],-0.208
same,glycan array binding signal (z-score),[8],0.283
same,glycan array binding signal (z-score),[9],-0.001
same,glycan array binding signal (z-score),[10],-0.187
same,glycan array binding signal (z-score),[11],-0.177
same,glycan array binding signal (z-score),[12],-0.128
same,glycan array binding signal (z-score),[13],-0.18
same,glycan array binding signal (z-score),[14],-0.192
same,glycan array binding signal (z-score),[15],-0.164
same,glycan array binding signal (z-score),[16],-0.181
same,glycan array binding signal (z-score),Gal(b1-3)GlcNAc6S,-0.154
same,glycan array binding signal (z-score),[17],-0.161
same,glycan array binding signal (z-score),[18],-0.183
same,glycan array binding signal (z-score),[19],-0.133
same,glycan array binding signal (z-score),[20],-0.179
same,glycan array binding signal (z-score),[21],-0.163
same,glycan array binding signal (z-score),[22],-0.028
same,glycan array binding signal (z-score),[23],-0.205
same,glycan array binding signal (z-score),[24],-0.216
same,glycan array binding signal (z-score),[25],-0.183
same,glycan array binding signal (z-score),[26],-0.222
same,glycan array binding signal (z-score),Gal(b1-4)Gal,-0.146
same,glycan array binding signal (z-score),[27],-0.177
same,glycan array binding signal (z-score),[28],-0.194
same,glycan array binding signal (z-score),Gal(b1-4)Glc,-0.126
same,glycan array binding signal (z-score),Gal(b1-4)Glc6S,-0.14
same,glycan array binding signal (z-score),Gal(b1-4)GlcNAc,-0.16
same,glycan array binding signal (z-score),[29],-0.154
same,glycan array binding signal (z-score),Gal(b1-4)GlcNAc(b1-2)Man,-0.161
same,glycan array binding signal (z-score),[30],-0.182
same,glycan array binding signal (z-score),[31],-0.168

# From the supplement of paper PMC8728848
